In PubChem BioAssay AID1460 (National Center for Advancing Translational Sciences (NCATS), 2008):
Hit rate of the full screen: of about 270,000 compounds, about 5,800 (2.1%) were called active. Inconclusive means that the source gave no clear call. Such entries were picked first, then a sample of the others. The call rests on the fitted dose curve; in most records, active means well fitted inhibition curve with a large enough effect; inconclusive means small, poorly fitted or top-dose-only effect; inactive means flat fitted curve, though single readings scatter. Where the call is inconclusive, the potency comes from a doubtful curve fit.

Target: Microtubule-associated protein tau (Homo sapiens) (UniProt P10636)
Assay: qHTS for Inhibitors of Tau Fibril Formation, Thioflavin T Binding; further: nearly all actives have a fitted effect of over 55% in size
Details: recombinant tau K18 P301L (four-repeat tau fragment), heparin-induced fibrillization, ThT fluorescence; series mostly up to 57.4 µM
In short: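 In this qHTS, human K18 P301L tau is incubated with compound and heparin for 6 hr at 37 C, and Thioflavin T fluorescence then reports fibril load.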
Potency means the concentration at half of the fitted maximal effect; tags describe the fitted curve by direction and shape.

Sequence of UniProt P10636 (P10636 whole entry, looked up): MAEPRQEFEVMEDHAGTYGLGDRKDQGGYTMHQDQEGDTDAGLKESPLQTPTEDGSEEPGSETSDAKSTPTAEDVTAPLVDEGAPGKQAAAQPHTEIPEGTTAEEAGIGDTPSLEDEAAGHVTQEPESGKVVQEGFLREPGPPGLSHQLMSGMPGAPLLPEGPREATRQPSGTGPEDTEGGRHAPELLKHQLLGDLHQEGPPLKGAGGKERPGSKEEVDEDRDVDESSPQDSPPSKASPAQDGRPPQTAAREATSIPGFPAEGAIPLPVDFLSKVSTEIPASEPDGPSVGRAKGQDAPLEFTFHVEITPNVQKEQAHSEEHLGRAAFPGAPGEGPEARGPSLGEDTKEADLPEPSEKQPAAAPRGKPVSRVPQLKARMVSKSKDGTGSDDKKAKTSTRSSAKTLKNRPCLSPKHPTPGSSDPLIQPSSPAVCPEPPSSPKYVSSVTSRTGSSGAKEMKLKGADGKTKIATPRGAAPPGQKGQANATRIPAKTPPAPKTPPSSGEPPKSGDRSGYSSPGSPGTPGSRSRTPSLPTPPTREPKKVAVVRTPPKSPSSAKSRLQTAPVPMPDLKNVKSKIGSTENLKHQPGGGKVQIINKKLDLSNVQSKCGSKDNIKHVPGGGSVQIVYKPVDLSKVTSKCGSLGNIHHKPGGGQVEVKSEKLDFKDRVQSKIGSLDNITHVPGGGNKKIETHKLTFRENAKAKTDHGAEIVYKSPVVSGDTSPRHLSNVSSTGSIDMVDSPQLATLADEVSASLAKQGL

| SMILES | Potency |
| --- | --- |
| O=C(Nc1ccc2oc(-c3cccnc3)nc2c1)c1ccc(-c2ccccc2OC(F)(F)F)o1 | inconclusive: 1.41 µM [inhibitor, full curve] |
| COc1ccc(-c2cc3ccc(O)c(CN4CCC(C)CC4)c3oc2=O)cc1 | inactive |
| COc1ccc(C(=O)c2sc(Nc3ccccc3)c(C(=O)Nc3ccc(OC)c(OC)c3)c2N)cc1 | active: 15.8 µM |
| CCOC(=O)C1=C(C)OC(N)=C(C#N)C1c1c(C)nn(-c2ccccc2)c1Cl (stereo not given) | inconclusive: 25.1 µM [inhibitor, partial curve] |
| COCCn1c(N)c(C(=O)OCc2ccccc2)c2nc3ccccc3nc21 | inactive |
| Cc1ccccc1NC(=O)c1cccc2nccnc12 | inconclusive: 12.6 µM [inhibitor, partial curve] |
| O=C(Nc1ccc(O)cc1)c1cc2ccccc2c(=O)s1 | inconclusive: 12.6 µM [inhibitor, partial curve] |
| COc1ccc(/C=C\C(=O)CC(O)(c2ccccc2)C(F)(F)F)cc1 (stereo not given) | inconclusive: 17.8 µM [inhibitor, partial curve] |
| Nc1ncnc2oc(-c3ccco3)c(-c3ccco3)c12 | active: 20 µM |
| O=C(CN1CCN(Cc2cccc(Cl)c2)C1=O)NCc1ccc(F)cc1 | inactive |
| COn1c2c(c3c4no[n+]([O-])c4ccc31)CCCC2 | inconclusive: 11.2 µM [inhibitor, partial curve, poor fit] |
| CCNC(=O)c1sc(=S)n(CC)c1N | inactive |
| COc1ccccc1C(=O)NCCn1cc(SCc2ccc(C)cc2)c2ccccc21 | inconclusive: 2.51 µM [inhibitor, full curve] |
| C/C(Cn1cnc([N+](=O)[O-])n1)=N\NC(=O)c1ccncc1 | inactive |
| CCC1CCc2nc3sc(C(=O)Nc4ccc(C)cc4)c(N)c3cc2C1 (stereo not given) | inconclusive: 0.126 µM [inhibitor, full curve, poor fit] |
| COc1ccc(OC)c2sc(N3CCN(C(=O)c4ccc5c(c4)CCCC5)CC3)nc12 | inconclusive: 12.6 µM [inhibitor, partial curve] |
| CC(C)Cc1nn2c(N)c(/C=C3\C=Nc4ccccc43)c(=O)nc2s1 | inconclusive: 25.1 µM [inhibitor, partial curve] |
| O=C(CC(Nc1ccc(Cl)cc1Cl)C(=O)O)c1ccccc1 (stereo not given) | inconclusive: 4.47 µM [inhibitor, partial curve] |
| Cc1ccc(C(=O)N/N=C\c2ccc(-c3ccc(Cl)cc3)o2)cn1 | inconclusive: 10 µM [inhibitor, partial curve] |
| Cc1ccc(-c2ccnc(=S)[nH]2)cc1 | inconclusive: 17.8 µM [inhibitor, partial curve] |
| CCCN(CC1CC1)C(=S)NC(=O)c1ccc(S(=O)(=O)N2CCOCC2)cc1 | inactive |
| O=C1C(NS(=O)(=O)c2cccs2)=C(N2CCN(c3cccc(Cl)c3)CC2)C(=O)c2ccccc21 | active: 3.98 µM |
| Cc1cc(C)c2c(-n3cccc3)c(C(=O)NNS(=O)(=O)c3ccc(Br)cc3)sc2n1 | inconclusive: 39.8 µM [inhibitor, single point] |

| SMILES | Potency |
| --- | --- |
| CCc1ccc2nc(N(Cc3cccnc3)C(C)=O)sc2c1 | inactive |
| c1ccc(-c2nc(N3CCCCCC3)nc(-n3ccnc3)n2)cc1 | inconclusive: 20 µM [inhibitor, single point] |
| Cc1nc(Nc2nc3ccccc3o2)nc(C)c1C(=O)Nc1ccc(F)cc1 | inconclusive: 17.8 µM [inhibitor, partial curve] |
| Cc1ccc(-c2nc(Nc3ccc(N4CCOCC4)cc3)c3ccccc3n2)cc1 | active: 15.8 µM |
| CCc1ccc2[nH]c(O)c(N=Nc3nc(-c4ccccc4)cs3)c2c1 | active: 4.47 µM |
| O=C(NC(Nc1nc2ccc([N+](=O)[O-])cc2s1)(C(F)(F)F)C(F)(F)F)c1ccccc1Cl | inconclusive: 39.8 µM [inhibitor, single point] |
| COc1ccc(OCC(=O)Nc2ccc3c(c2)nc(CCNC(=O)c2ccco2)n3C)cc1 | inconclusive: 5.01 µM [inhibitor, full curve, poor fit] |
| O=S(=O)(N/N=C/c1ccccc1F)c1ccccc1 | inactive |
| Cc1ccc(/C=C2\SC(=S)N(C(Cc3ccccc3)C(=O)O)C2=O)cc1 (stereo not given) | inconclusive: 14.1 µM [inhibitor, partial curve] |
| c1ccc2c(c1)CCN(c1nc3cc4c(cc3s1)OCO4)C2 | inconclusive: 6.31 µM [inhibitor, partial curve] |
| O=C(Nc1ccc(Cl)cc1)Nc1cccc(C(=O)O)c1 | inconclusive: 15.8 µM [activator, partial curve] |
| CC1CCCC(NC(=O)COC(=O)COc2ccc(Cl)cc2)C1C (stereo not given) | inactive |
| O=C(Nc1ccc(Br)cc1)c1ccc(F)c(S(=O)(=O)N2CCCc3ccccc32)c1 | inactive |
| CCOC(=O)c1cnn2c(C(F)(F)F)cc(-c3ccc(Br)cc3)nc12 | inconclusive: 20 µM [inhibitor, partial curve] |
| COC(=O)C1=C(C(=O)OC)C(c2cc(Br)ccc2O)c2sc(=O)[nH]c2S1 (stereo not given) | active: 28.2 µM |
| Cc1cc(C)cc(NC(=O)c2ccc(CSc3nnnn3C)cc2)c1 | inconclusive: 7.94 µM [inhibitor, partial curve, poor fit] |
| CCc1cccc2c(-c3ccccc3)c3c(nc12)OCC3 | inconclusive: 35.5 µM [inhibitor, single point] |
| CCCCC#Cc1nc(NC)c2ncn([C@@H]3O[C@@H](CO)[C@H](O)[C@H]3O)c2n1 | inactive |
| c1ccc(N2CCN(c3ncnc4c3oc3ccccc34)CC2)cc1 | inconclusive: 10 µM [inhibitor, partial curve] |
| CCn1c(SCC(=O)Nc2nccs2)nnc1-c1cc2cccc(OC)c2o1 | inconclusive: 1 µM [inhibitor, full curve] |
| O=[N+]([O-])c1cc2c(cc1/C=N/n1c(-c3ccccn3)n[nH]c1=S)OCO2 | inconclusive: 39.8 µM [inhibitor, single point] |
| COc1ccc(-c2nsc(SCC(=O)Nc3cc(C)on3)n2)cc1 | inactive |
